The supplement of paper PMC3694890
± gives the uncertainty stated by the source. The list shows a part of the results. Phosphotyrosine is written y.

Molecular target: GRB2 (endogenous complexes from cell lysate), P62993
Assay: GRB2 complex binding differential signal (pY peptide minus Ala control peptide) (fluorescence intensity units); higher = stronger GRB2 complex binding
Settings: MCF7
Protocol: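 In situ synthesized µParaflo PepArray of 6-mer peptides, each starting with an N-terminal phosphotyrosine (lowercase 'y' = pY) followed by 5 native residues. Peptides are tethered to glass through a long linker. Chips were incubated overnight at 4°C with total cell lysate (1 mg in 1 mL) from MCF10A, MCF7, T47D or MDA-MB-231 cells. Bound endogenous GRB2-containing complexes were detected with rabbit anti-GRB2 and an Alexa647 secondary antibody. Signals are background-subtracted and averaged over replicate spots, then the matched Ala-substituted control peptide signal is subtracted (differential signal).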
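Also: phosphopeptide probes on the chip at 1–4 µM, lysate proteins bound in 20 mM Tris pH 7.0 buffer with 140 mM NaCl, 1% Triton X-100 and 5% glycerol.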

For yARVIQ [CRK_239/A1], which “GRB2 complex binding differential signal” value is on record?
Its value is 5080 ± 1400.

For yEGNSY [CSF1R_556/A1], which “GRB2 complex binding differential signal” value is on record?
Its value is 3120 ± 1300.

For yRSPPP [DAG1_886/A1], which “GRB2 complex binding differential signal” value is on record?
The value was 15600 ± 3200.

yELMLR [DDR1_881/A1] was tested. Which “GRB2 complex binding differential signal” value did it give?
The value was 662 ± 200.

For yTFIDP [CSF1R_561/A1], which “GRB2 complex binding differential signal” value is on record?
The value was -3.39 ± 260.

yYRVQG [DDR1_796/A1] was tested. Which “GRB2 complex binding differential signal” value did it give?
Its value is 1770 ± 250.

yLPVQT [DMD_3394/A1] was tested. Which “GRB2 complex binding differential signal” value did it give?
Its value is 2120 ± 1200.

How did the “GRB2 complex binding differential signal” value turn out when yVEMRP [CSF1R_723/A1] was run?
The value was 1410 ± 560.

With yKNIHL [CSF1R_699/A1] as the binder, how does the “GRB2 complex binding differential signal” value read?
Its value is 45200 ± 7900.

How did the “GRB2 complex binding differential signal” value turn out when yAQPSV [CRK_221/A1] was run?
The value was 2840 ± 2500.

yQEPRP [DDR1_484/A1] was tested. Which “GRB2 complex binding differential signal” value did it give?
The value was 6760 ± 2000.

For yPNQSV [DAG1_831/A1], which “GRB2 complex binding differential signal” value is on record?
Its value is 1370 ± 380.

How did the “GRB2 complex binding differential signal” value turn out when yMENGD [DDR1_703/A1] was run?
The value was 1070 ± 2200.

Which “GRB2 complex binding differential signal” value does the source give for yIVKGN [CSF1R_809/A1] here?
The value was 1450 ± 410.

How did the “GRB2 complex binding differential signal” value turn out when yDKTAL [CRK_251/A1] was run?
Its value is 1160 ± 510.

With yAGDYY [DDR1_792/A1] as the binder, how does the “GRB2 complex binding differential signal” value read?
Its value is 54 ± 180.

How did the “GRB2 complex binding differential signal” value turn out when yRVQGR [DDR1_797/A1] was run?
Its value is 938 ± 380.

Same assay, conditions: MCF10A

How did the “GRB2 complex binding differential signal” value turn out when yARVIQ [CRK_239/A1] was run?
The value was 2770 ± 440.

With yEGNSY [CSF1R_556/A1] as the binder, how does the “GRB2 complex binding differential signal” value read?
Its value is 896 ± 1200.

With yRSPPP [DAG1_886/A1] as the binder, how does the “GRB2 complex binding differential signal” value read?
The value was 9750 ± 1600.

With yELMLR [DDR1_881/A1] as the binder, how does the “GRB2 complex binding differential signal” value read?
The value was 164 ± 320.

Which “GRB2 complex binding differential signal” value does the source give for yTFIDP [CSF1R_561/A1] here?
Its value is 115 ± 140.

How did the “GRB2 complex binding differential signal” value turn out when yYRVQG [DDR1_796/A1] was run?
Its value is 627 ± 230.

For yLPVQT [DMD_3394/A1], which “GRB2 complex binding differential signal” value is on record?
Its value is 3080 ± 780.

yVEMRP [CSF1R_723/A1] was tested. Which “GRB2 complex binding differential signal” value did it give?
Its value is 1330 ± 480.

How did the “GRB2 complex binding differential signal” value turn out when yKNIHL [CSF1R_699/A1] was run?
Its value is 24700 ± 10000.

With yAQPSV [CRK_221/A1] as the binder, how does the “GRB2 complex binding differential signal” value read?
Its value is 2120 ± 830.

yQEPRP [DDR1_484/A1] was tested. Which “GRB2 complex binding differential signal” value did it give?
Its value is 3770 ± 490.

With yPNQSV [DAG1_831/A1] as the binder, how does the “GRB2 complex binding differential signal” value read?
Its value is 908 ± 370.

With yMENGD [DDR1_703/A1] as the binder, how does the “GRB2 complex binding differential signal” value read?
The value was 1130 ± 720.

Which “GRB2 complex binding differential signal” value does the source give for yIVKGN [CSF1R_809/A1] here?
The value was 2230 ± 450.

yDKTAL [CRK_251/A1] was tested. Which “GRB2 complex binding differential signal” value did it give?
Its value is 1740 ± 480.

Which “GRB2 complex binding differential signal” value does the source give for yAGDYY [DDR1_792/A1] here?
Its value is 143 ± 140.

With yRVQGR [DDR1_797/A1] as the binder, how does the “GRB2 complex binding differential signal” value read?
The value was 468 ± 310.

Same assay, conditions: MDA-MB-231

Which “GRB2 complex binding differential signal” value does the source give for yARVIQ [CRK_239/A1] here?
Its value is 609 ± 390.

With yEGNSY [CSF1R_556/A1] as the binder, how does the “GRB2 complex binding differential signal” value read?
The value was 511 ± 310.

With yRSPPP [DAG1_886/A1] as the binder, how does the “GRB2 complex binding differential signal” value read?
The value was 3380 ± 630.

How did the “GRB2 complex binding differential signal” value turn out when yELMLR [DDR1_881/A1] was run?
The value was 1370 ± 440.

For yTFIDP [CSF1R_561/A1], which “GRB2 complex binding differential signal” value is on record?
Its value is 3300 ± 710.

Which “GRB2 complex binding differential signal” value does the source give for yYRVQG [DDR1_796/A1] here?
The value was 517 ± 330.

For yLPVQT [DMD_3394/A1], which “GRB2 complex binding differential signal” value is on record?
The value was 1430 ± 340.

How did the “GRB2 complex binding differential signal” value turn out when yVEMRP [CSF1R_723/A1] was run?
The value was 1310 ± 440.

For yKNIHL [CSF1R_699/A1], which “GRB2 complex binding differential signal” value is on record?
The value was 4990 ± 1500.

With yAQPSV [CRK_221/A1] as the binder, how does the “GRB2 complex binding differential signal” value read?
Its value is 1090 ± 510.

For yQEPRP [DDR1_484/A1], which “GRB2 complex binding differential signal” value is on record?
Its value is 1780 ± 460.

How did the “GRB2 complex binding differential signal” value turn out when yPNQSV [DAG1_831/A1] was run?
The value was 1100 ± 360.

Which “GRB2 complex binding differential signal” value does the source give for yMENGD [DDR1_703/A1] here?
The value was 705 ± 360.

How did the “GRB2 complex binding differential signal” value turn out when yIVKGN [CSF1R_809/A1] was run?
The value was 912 ± 460.

How did the “GRB2 complex binding differential signal” value turn out when yDKTAL [CRK_251/A1] was run?
Its value is 625 ± 280.

Which “GRB2 complex binding differential signal” value does the source give for yAGDYY [DDR1_792/A1] here?
Its value is 508 ± 290.

For yRVQGR [DDR1_797/A1], which “GRB2 complex binding differential signal” value is on record?
Its value is 243 ± 360.

Same assay, conditions: T47D

With yARVIQ [CRK_239/A1] as the binder, how does the “GRB2 complex binding differential signal” value read?
The value was 841 ± 1400.

Which “GRB2 complex binding differential signal” value does the source give for yEGNSY [CSF1R_556/A1] here?
The value was 576 ± 1600.

How did the “GRB2 complex binding differential signal” value turn out when yRSPPP [DAG1_886/A1] was run?
The value was 3200 ± 1100.

yELMLR [DDR1_881/A1] was tested. Which “GRB2 complex binding differential signal” value did it give?
Its value is 1770 ± 3600.

yTFIDP [CSF1R_561/A1] was tested. Which “GRB2 complex binding differential signal” value did it give?
The value was 7450 ± 1400.

How did the “GRB2 complex binding differential signal” value turn out when yYRVQG [DDR1_796/A1] was run?
The value was 607 ± 1200.

Which “GRB2 complex binding differential signal” value does the source give for yLPVQT [DMD_3394/A1] here?
Its value is 1600 ± 1300.

With yVEMRP [CSF1R_723/A1] as the binder, how does the “GRB2 complex binding differential signal” value read?
The value was 1180 ± 770.

With yKNIHL [CSF1R_699/A1] as the binder, how does the “GRB2 complex binding differential signal” value read?
Its value is 14500 ± 3800.

How did the “GRB2 complex binding differential signal” value turn out when yAQPSV [CRK_221/A1] was run?
The value was 1010 ± 1000.

For yQEPRP [DDR1_484/A1], which “GRB2 complex binding differential signal” value is on record?
The value was 1780 ± 1200.

Which “GRB2 complex binding differential signal” value does the source give for yPNQSV [DAG1_831/A1] here?
Its value is 3560 ± 1400.

How did the “GRB2 complex binding differential signal” value turn out when yMENGD [DDR1_703/A1] was run?
Its value is 766 ± 1200.

Which “GRB2 complex binding differential signal” value does the source give for yIVKGN [CSF1R_809/A1] here?
The value was 573 ± 1000.

For yDKTAL [CRK_251/A1], which “GRB2 complex binding differential signal” value is on record?
The value was 1070 ± 930.

yAGDYY [DDR1_792/A1] was tested. Which “GRB2 complex binding differential signal” value did it give?
Its value is 854 ± 1400.

For yRVQGR [DDR1_797/A1], which “GRB2 complex binding differential signal” value is on record?
Its value is 181 ± 1100.
